Values joined by “and” are separate entries in the source; they are usually repeats but may differ in a detail not shown here. Identical values can stand only once. The source gives many values for each of these; only a part stands here.
Test: xn = mol fraction of the nth substance listed

CC(C)(C)O + O
viscosity
Conditions	298 K	298.15 K
100 kPa, x1 = 0.00982	–	1.087 mPa·s and 1.089 mPa·s
100 kPa, x1 = 0.02462	–	1.453 mPa·s
100 kPa, x1 = 0.05982	–	2.38 mPa·s and 2.383 mPa·s
100 kPa, x1 = 0.09495	–	3.106 mPa·s and 3.12 mPa·s
101 kPa, x1 = 0.005	0.976 mPa·s	–
101 kPa, x1 = 0.01	1.076 mPa·s	–
101 kPa, x1 = 0.021	–	1.34 mPa·s
101 kPa, x1 = 0.0267	–	1.46 mPa·s
101 kPa, x1 = 0.03	1.566 mPa·s	–
101 kPa, x1 = 0.043	–	1.93 mPa·s
101 kPa, x1 = 0.05	2.117 mPa·s	–
101 kPa, x1 = 0.073	–	2.64 mPa·s
101 kPa, x1 = 0.0795	–	2.7 mPa·s
101 kPa, x1 = 0.08	2.777 mPa·s	–
101 kPa, x1 = 0.1	3.243 mPa·s	3.194 mPa·s
101 kPa, x1 = 0.1376	–	3.61 mPa·s
101 kPa, x1 = 0.14	–	3.79 mPa·s
101 kPa, x1 = 0.15	3.857 mPa·s	–
101 kPa, x1 = 0.2	4.342 mPa·s	–
101 kPa, x1 = 0.2001	–	4.456 mPa·s
101 kPa, x1 = 0.235	–	4.44 mPa·s
101 kPa, x1 = 0.25	4.615 mPa·s	–
101 kPa, x1 = 0.266	–	4.71 mPa·s
101 kPa, x1 = 0.3	4.747 mPa·s	4.939 mPa·s
101 kPa, x1 = 0.33	–	4.66 mPa·s
101 kPa, x1 = 0.35	4.838 mPa·s	–
101 kPa, x1 = 0.392	–	4.8 mPa·s
101 kPa, x1 = 0.3935	–	4.67 mPa·s
101 kPa, x1 = 0.3997	–	5.022 mPa·s
101 kPa, x1 = 0.4	4.815 mPa·s	–
101 kPa, x1 = 0.5	4.698 mPa·s	–
101 kPa, x1 = 0.5001	–	4.926 mPa·s
101 kPa, x1 = 0.5039	–	4.55 mPa·s
101 kPa, x1 = 0.584	–	4.58 mPa·s
101 kPa, x1 = 0.5989	–	4.752 mPa·s
101 kPa, x1 = 0.6	4.494 mPa·s	4.37 mPa·s
101 kPa, x1 = 0.7	4.298 mPa·s	–
101 kPa, x1 = 0.8	4.152 mPa·s	–
101 kPa, x1 = 0.85	4.106 mPa·s	–
101 kPa, x1 = 0.88	4.108 mPa·s	–
101 kPa, x1 = 0.9	4.113 mPa·s	–
101 kPa, x1 = 0.92	4.114 mPa·s	–
101 kPa, x1 = 0.95	4.167 mPa·s	–
101 kPa, x1 = 0.97	4.215 mPa·s	–
101 kPa, x1 = 0.98	4.249 mPa·s	–
101 kPa, x2 = 0.01	4.284 mPa·s	–

Reference: the CheMixHub viscosity set
